Among all 44,000 compounds or so, about 340 (0.77%) were called active. Inconclusive results (about 5%) are left out. The call rests on the fitted dose curve; in most records, active means well fitted inhibition curve with a large enough effect; inconclusive means small, poorly fitted or top-dose-only effect; inactive means flat fitted curve, though single readings scatter. Some of the results follow.
Assay: Acumen qHTS Assay for Inhibitors of the mTORC1 Signaling Pathway in MEF (Tsc2-/-, p53-/-) Cells: Sytravon;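 further: plate controls were DMSO for no effect and rapamycin for full effect; nearly all actives have a fitted effect of over 50% in size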
Details: phospho-rpS6 immunofluorescence/PI, 24 h; series mostly up to 38.3 µM; activity change, negative = inhibition: at the top concentration
Outline: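 Tsc2-/-, p53-/- mouse embryonic fibroblasts (empty-vector line) exposed to compound 24 hrs at 37 C, fixed, immunostained for phospho-rpS6 and counterstained with propidium iodide. Acumen laser scanning gives % positive cells from Alexa 488/PI ratio, thresholded using 7.5 nM rapamycin; PI count gives viability.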

Activity change, negative = inhibition, inactive:
Cc1cc(Cl)ccc1NS(=O)(=O)c1ccc2c(c1)CCN2S(C)(=O)=O -1.19%, Cc1cccc(CNC(=O)Cc2csc3ccccc23)c1 -2.59%, COc1ccc(S(=O)(=O)N2CCN(Cc3nc4ccc(C)cc4o3)CC2)cc1OC 0%, COc1ccc(NC(=O)CC2C(=O)N(c3ccc(OC)cc3)C(=O)N2C2CCCCC2)cc1 (configuration not stated) -0.312%, Cc1c(Cl)cccc1-n1c(SCC(=O)NCc2ccccc2)nc2n[nH]c(C)c2c1=N -3.16%, COc1cccc(C(=O)N2CC(=O)Nc3ccc(C)cc3C2c2ccc(F)cc2)c1OC (configuration not stated) 0.314%, Cc1ccc(Nc2cc(=O)[nH]c(=O)[nH]2)cc1C -1.5%, Cc1ccc(C(=O)N2c3ncnn3C3(CCCCC3)[C@@H]3CCCC[C@@H]32)cc1 -7.04%, Cc1ccc2oc(=O)c(-c3nc4ccc(C)cc4[nH]3)cc2c1 -8.95%, COc1ccc(OC)c(CNC(=O)CCc2c(C)nc3c(c2C)c(=O)n(C)c(=O)n3C)c1 -0.347%, CCCOc1ccc(CNC(=O)C(C)n2nc(C)n3c(cc4occc43)c2=O)cc1 (configuration not stated) -4.18%, COc1ccc(Cl)cc1NC(=O)CSc1nnc(C)n2c1cc1sccc12 -5.9%, Cc1oc2ncnc(N3CCCCC3)c2c1C(=O)Nc1cccc(Cl)c1C -0.703%, CCc1ccccc1NS(=O)(=O)c1ccc(-c2coc(C)n2)cc1 -19.6%, CCC1CCCCN1S(=O)(=O)c1ccc(NC(=O)c2nc(SC)ncc2Cl)cc1 (configuration not stated) -4.31%, Cn1c2c(c(=O)n(C)c1=O)C(c1cc(Br)ccc1F)CC(=O)N2 (configuration not stated) -21.4%, Cc1nc2cc(-c3ccccc3)nn2c(C)c1CCC(=O)NCCc1ccccc1 -3.04%, Cc1ccc2[nH]c(CSc3nnc(NC(=O)COc4ccccc4C)s3)cc(=O)c2c1 0%, COc1ccc(Nc2cc(C(=O)NCCCN(C)c3ccccc3)c3ccccc3n2)c(OC)c1 3.07%, Cc1cccc(C)c1NC(=O)c1c(C)oc2c1C1=NCCN1C=N2 -10.2%, COc1ccc(CC(=O)Nc2ccc(-c3nc4ccccc4s3)cc2Cl)cc1OC -12.3%, Cc1cccc(CCNC(=O)c2ccc3c(c2)nc2n3CCOC2)c1 -15.5%, COC(=O)c1ccc(NC(=O)c2cc(S(=O)(=O)N3CCC(C)CC3)cn2C)cc1 8.9%, CCOC(=O)c1ccc(Nc2nc(N)c3cc(OC)c(OC)cc3n2)cc1 -19.9%, CCn1cc(C(=O)NCCCN2CCC(C)CC2)c(=O)c2cc(S(=O)(=O)N(C)C3CCCCC3)ccc21 -9.53%, COc1ccc(C(=O)c2oc3ccccc3c2NC(=O)COc2cccc(C)c2)cc1 -0.163%, CCN(CC)CCNC(=O)c1ccc2c(c1)NC(=O)C(CS(=O)(=O)Cc1ccc(F)cc1Cl)N2 (configuration not stated) 5.83%

— PubChem BioAssay AID493208 (National Center for Advancing Translational Sciences (NCATS), 2011)
